Laboratory results from the RNAGym collection of RNA variant scans (doi:10.1093/nar/gkz1192).
The source gives no read counts; variants with many changes may rest on few reads.

B1: CPEB3 Ribozyme (parent)
chain: UAACAGGGGGCCACAGCAGAAGCGUUCACGUCGCAGCCCCUGUCAGAUUCUGGUGAAUCUGCGAAUUCUGCUGUAUAUCUC

Variants of: B1
Assay: self-cleavage, relative activity (ratio to wild type); higher = more cleavage; in vitro, sequencing
How it was run: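 For each CPEB3 ribozyme variant, relative activity is its cleaved/total read fraction divided by the unmutated ribozyme's. Barcoded error-prone PCR libraries were transcribed by T7 RNA polymerase (5 hours, 37°C) and held in DNase I for 15 min before an EDTA stop, with cleavage occurring throughout. Template-switching reverse transcription and Illumina sequencing were used to read the RNAs. A 5-read minimum applied, and results are the mean of three batches.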

Q: With UGACAGGGGGCCACAGCAGAAGCGUUCACGUCGCAGCCCCUGUCAGAUUCUGGUGAGCCUGCGAAUUCUGCUGUAUAGCUC as the variant, how does the self-cleavage read?
A: 0.26

Q: With UGACAGGGGGCCACAGCAGAAGCGUUCACGUCGCAGCCCCUGUCGGAUUCUGGUGAAUCUGCGAAUACUGCUGUAUAUCUC as the variant, how does the self-cleavage read?
A: 0.22

Q: For UGACAGGGGGCCACAGCAGAAGCGUUCCCGUCGCGGCCCCUGUCAGAUUCUGGUGAAUCUGCGAGUUCAGCUGUAUAUCUC, which self-cleavage is on record?
A: 0.18

Q: With UGACAGGGGGCCACAGCAGAAGCGUUCACGUCGCAGCCCCUGUCAGAUUCUGGUGAAUCUGCGAUUUCAGCGGUAUAUCUC as the variant, how does the self-cleavage read?
A: 0.39

Q: Which self-cleavage does the source give for UGACAGGGGGCCACAGCAGAAGCGUUCACGUCGCAGCCCCUGUCAGGUUCUGGUGGAUCUGCGAAUUCUGCAGUAUAUCUC here?
A: 0.44

Q: For UGACAGGGGGCCACAGCAGAAGCGUUCACGUCGCAGCCCCUGUCGGAUUCCGGUGAAUCUGCAAAUUCUGCUGUAUAUCUC, which self-cleavage is on record?
A: 0.47

Q: For UGACAGGGGGACCCAGCAAAAGCGUUCACGUCGCAGCCCCUGUCAGAUUCUGGAGAAUCUGCGAUUUCUGCUGUAUAUCUC, which self-cleavage is on record?
A: 0.13

Q: With UGACAGGGGGCCACAGCAGAAGCGUUCACGUCGCAGCCCCUGUCGGAUUCUGGUGAAUCUGCGAAUUCUGCUGUAUGUCUC as the variant, how does the self-cleavage read?
A: 0.49

Q: For UGACAGGGGGCCACAGCAGAAGCGUUCACGUCGCAGCCCCUGUCGGAUUCUGGUGAAUCUGCGAAUUCUGCUGUAUUUCUC, which self-cleavage is on record?
A: 0.54

Q: For UGACAGGGGGGCACAGCAGAAGCGAUCACGUCGCAGCCCCUGUCCGUUUCUGGUGAAUCUGCGAAUUCUGCCGUAUAUCUC, which self-cleavage is on record?
A: 0.06

Q: For UGACAGGGGGCCACAGCAGAAGCGUUCACGUCGCAGCCCCUGUCGGAUUCUGGUGAUUCUGCGAAUGCUGCUGUAUAUCUC, which self-cleavage is on record?
A: 0.2

Q: For UGACAGGGGGCCACAGCAGAAGCGUUCACGUCGCAGCCCCUGUCGGGCUCUGGUGAAUCUGCGAAUUCUGCUGUAUAUCUC, which self-cleavage is on record?
A: 0.33

Q: With UGACAGGGGGCCACAGCAGAAGCGUUCACGUCGCAGCCCCUGUCAGGUUCUGGUGAAUCUGCGAAUCCCGCUGUAUAUCCC as the variant, how does the self-cleavage read?
A: 0.34

Q: Which self-cleavage does the source give for UGACAGGGGGCCACAGCAGAAGCGUUCGCGUCGCAGCCCCUGUCAGAUUCCGGAGAAUCUGCGAAUACUGCUGCAUAUCUC here?
A: 0.2

Q: With UGACAGGGGGCCACAGCAGAAGCGUUCUCGUCGCAGCCCCUGCCAGAUUCUGGUGCAUCUGGGAAUUCUGCUGUAUAUCUC as the variant, how does the self-cleavage read?
A: 0.31

Q: With UGACAGGGGGCCACAGCAGAAGCGUUCACGUCGCAGCCCCUGUCAGAUUCUGGUGAAUCUGCGGAUUCUGCUGUAUAUAUC as the variant, how does the self-cleavage read?
A: 0.48

Q: For UGAUAGGGGGCCACAGCAGAAGCGUUCACGUCGCAGCCCCUGUCAGAUUCUGGUGAAUCCACGAAUUCUGCCGUACAUCUC, which self-cleavage is on record?
A: 0.34

Q: Which self-cleavage does the source give for UGACAGGGGGCCACAGCAGAAGCGUUCACGUCGCAGCCCCUGUCCGAUUCUGGUGGAUCUGCGAAUUCUGCUGUAUAUCUC here?
A: 0.09

Q: With UGACAGGGGGCCACAGCAGAAGCGUUCUAGUCGCAGCCCCUGUCAGAUUCUGGUGAAGCUGCGAAUUAUGCCGUAUAUCUC as the variant, how does the self-cleavage read?
A: 0.06

Q: Which self-cleavage does the source give for UGACAGGGGGCCACAGCAGAAGCGUUCUCGUCGCAGCCCCAGUCAGAUUCUGGUGAAUAUGCGAAUUCUGCUGUAUAUCUC here?
A: 0.05

Q: For UGACAGGGGGGCACAGCAGAAGCGUCCACGCCGCAGCCCCUGGCAGAUUCUGGUGAAUCUGCGAAUUCUGCUGUAUAUCUC, which self-cleavage is on record?
A: 0.05

Q: For UGACAGGGGGCCACAGCAGAAGCGUUCGCGUCGCAGCCCCUGUCAGAUUCUGGUGAAUCUGCGAAUUCAGCCGUAUAUCUC, which self-cleavage is on record?
A: 0.12

Q: Which self-cleavage does the source give for UGACAGGGGGCCACAGCAGAAGCGUUCACGUCGCGGCCCCUGUCAGAUUCCGGUGAAUCUGCGAAUUCUGCUGUAUAUCUC here?
A: 1.08

Q: With UGACAGGGGGCCACAGCAGAAGCGUUCACGUCGCAGCCCCUGUCAGGUUCUGGUGAAUCUGCGAAUUCUGCUGAAUAUCUC as the variant, how does the self-cleavage read?
A: 0.74

Q: Which self-cleavage does the source give for UGAUAGGGGGCCACAGCAGAAGCGCUCACGUCGCAGCCCCUGUCAGAUUCUGGUGAAUCUGCGAAUUCUGCUGUAUAUCUC here?
A: 0.63

Q: Which self-cleavage does the source give for UGAUAGGGGGCCACAGCAGAAGCGUUCACGCCGCAGCCCCUGUCAGAUUCUGGUGAAUCUGCGAAUUCUGCUGUAUAUCUC here?
A: 0.58

Q: With UGACAGGGGGCCACAGCAGAAGCGUUCGCGUCGCGGCCCCUGUCAGAUUCUGGUGAAUCUGCGAACUCUGCUGUAUAUCUC as the variant, how does the self-cleavage read?
A: 0.25

Q: For UGACAGGGGGCCACAGCAGAAGCGUUCACGUCGCCGCCCCCGUCAGAUUCUGGUGAAACUGCGAAUUCUGCUGUAUAUCUA, which self-cleavage is on record?
A: 0.33

Q: With UGACAGGGGGGCACAGCAGGAGCGUUCACGUCGCAGCCCCCGUCAGAUUCUGGUGAAUCUGCGAAUUCUGCUGUAUAUCUC as the variant, how does the self-cleavage read?
A: 0.34

Q: With UGACAGGGGGCCACAGCAGAAGCGUUCUCGUCGCAGCCCCUGUCAGACUCAGGUGAAACUGCGAAUUCUGUAGUAUAUCUC as the variant, how does the self-cleavage read?
A: 0.07

Q: With UGACAGGGGGUCGCGGCAGAAGCGUUCACGACGCAGCCCCUGACAGAUUCUGGUGAAUCUGCGAAUUCUGCUAUAUAUCUC as the variant, how does the self-cleavage read?
A: 0.26

Q: Which self-cleavage does the source give for UGACAGGGGGUCACAGCAGAAGCGUUCACGUCGCGGCCCCUGUCUGAGUCUGGUGUAUCUGCGAAUUCUGCUGUACAUCUC here?
A: 0.04

Q: Which self-cleavage does the source give for UGACAGGGGGCCACAGCAGAAGCGUUCACGUCGCAGCCCCUGUCUGACUCUGGUGAGUCUGCGAAUUCUGCUGUAUAUCUC here?
A: 0.54

Q: Which self-cleavage does the source give for UGACAGGGGGCCACAGCAGAAGCGUUCACGUCGCAGCCCCUGUCGGAUUCCGGUGAAUCUGCGAGUUCUGCUGUAUAUCUC here?
A: 0.12
